Experimental findings from the supplement of paper PMC4604168 (melanoma cell lines) are described below.

This is one part of the list. Single values are uncertain, as repeats are few or missing.
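Further: cell number obtained by counting DAPI-stained nuclei in high-throughput microscope images with image analysis software, screen run in 1,536-well plates.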

This test has as its system SkMel30. The test is described as follows: cell count relative to DMSO control; melanoma cells; higher = more viable cells. The conditions noted are these: library dose: low library concentration; 72 h.
Consider `Clc1ccc(Nc2nnc(Cc3ccncc3)c3ccccc23)cc1` [vatalanib] + O=C(Oc1ccc([N+](=O)[O-])cc1)N1CCC(C(O)(c2ccc3c(c2)OCO3)c2ccc3c(c2)OCO3)CC1 [JZL184] (first compound 2 µM, partner dose 1 µM), for which the cell count turned out to be 115%.

`COc1cc2ncnc(Nc3ccc(Oc4ccccc4)cc3)c2cc1OC` + O=C(Oc1ccc([N+](=O)[O-])cc1)N1CCC(C(O)(c2ccc3c(c2)OCO3)c2ccc3c(c2)OCO3)CC1 [JZL184] (first compound 2 µM, partner dose 1 µM) returned a cell count of 48%.

Regarding `Nc1ccn([C@@H]2O[C@H](CO)[C@@H](O)C2(F)F)c(=O)n1` [gemcitabine] + C[As](C)SC[C@H](NC(=O)CC[C@H](N)C(=O)O)C(=O)NCC(=O)O [Darinaparsin] (first compound 0.0004 µM, partner dose 0.4 µM), the cell count was 108%.

`CC(C)C[C@H](NC(=O)[C@H](Cc1ccccc1)NC(=O)c1cnccn1)B(O)O` [Bortezomib] + O=C(Oc1ccc([N+](=O)[O-])cc1)N1CCC(C(O)(c2ccc3c(c2)OCO3)c2ccc3c(c2)OCO3)CC1 [JZL184] (first compound 0.001 µM, partner dose 1 µM) displayed a cell count of 50.7%.

`c1cc(-c2cnn3cc(-c4ccc(OCCN5CCCCC5)cc4)cnc23)ccn1` [Dorsomorphin] + O=C(Oc1ccc([N+](=O)[O-])cc1)N1CCC(C(O)(c2ccc3c(c2)OCO3)c2ccc3c(c2)OCO3)CC1 [JZL184] (first compound 0.4 µM, partner dose 1 µM) came in with a cell count of 104%.

Regarding `Oc1cc(-c2nc(-c3ccccc3)[nH]c2-c2ccncc2)ccc1Cl` + O=C(Oc1ccc([N+](=O)[O-])cc1)N1CCC(C(O)(c2ccc3c(c2)OCO3)c2ccc3c(c2)OCO3)CC1 [JZL184] (first compound 0.2 µM, partner dose 1 µM), the cell count was found to be 86.2%.

Consider `Nc1ccn([C@@H]2O[C@H](CO)[C@@H](O)C2(F)F)c(=O)n1` [gemcitabine] + C/C(O)=C(\C#N)C(=O)Nc1cc(Br)ccc1Br [LFM-A13] (first compound 0.0004 µM, partner dose 2 µM), for which the cell count was determined as 95%.

For the compound `CC(C)C[C@H](NC(=O)[C@H](Cc1ccccc1)NC(=O)c1cnccn1)B(O)O` [Bortezomib] + C/C(O)=C(\C#N)C(=O)Nc1cc(Br)ccc1Br [LFM-A13] (first compound 0.001 µM, partner dose 2 µM), the cell count is 85.8%.

For `CO[C@H]1C[C@@H]2CC[C@@H](C)[C@@](O)(O2)C(=O)C(=O)N2CCCC[C@H]2C(=O)O[C@H]([C@H](C)C[C@@H]2CC[C@@H](OCCO)[C@H](OC)C2)CC(=O)[C@H](C)/C=C(\C)[C@@H](O)[C@@H](OC)C(=O)[C@H](C)C[C@H](C)/C=C/C=C/C=C/1C` [everolimus] + Cc1cc(SCc2sc(-c3ccc(C(F)(F)F)c(F)c3)nc2C)ccc1OCC(=O)O [GW0742] (first compound 0.02 µM, partner dose 2 µM), the cell count stood at 90.3%.

With `Nc1ccn([C@@H]2O[C@H](CO)[C@@H](O)C2(F)F)c(=O)n1` [gemcitabine] + O=C(Oc1ccc([N+](=O)[O-])cc1)N1CCC(C(O)(c2ccc3c(c2)OCO3)c2ccc3c(c2)OCO3)CC1 [JZL184] (first compound 0.0004 µM, partner dose 1 µM), the cell count amounted to 92.8%.

Compound `Cc1nc(Nc2ncc(C(=O)Nc3c(C)cccc3Cl)s2)cc(N2CCN(CCO)CC2)n1` [dasatanib] + Cc1cc(SCc2sc(-c3ccc(C(F)(F)F)c(F)c3)nc2C)ccc1OCC(=O)O [GW0742] (first compound 0.004 µM, partner dose 2 µM) came in with a cell count of 105%.

The compound `COCC[n+]1c2c(n(Cc3cnccn3)c1C)C(=O)c1ccccc1C2=O` + Cc1cc(SCc2sc(-c3ccc(C(F)(F)F)c(F)c3)nc2C)ccc1OCC(=O)O [GW0742] (first compound 0.0004 µM, partner dose 2 µM) gave a cell count of 100%.

With `Cc1cc(Nc2cc(N3CCN(C)CC3)nc(Sc3ccc(NC(=O)C4CC4)cc3)n2)n[nH]1` [Tozasertib] + C/C(O)=C(\C#N)C(=O)Nc1cc(Br)ccc1Br [LFM-A13] (first compound 0.006 µM, partner dose 2 µM), the cell count stood at 78.4%.

Take `Cc1cc(Nc2cc(N3CCN(C)CC3)nc(Sc3ccc(NC(=O)C4CC4)cc3)n2)n[nH]1` [Tozasertib] + C[As](C)SC[C@H](NC(=O)CC[C@H](N)C(=O)O)C(=O)NCC(=O)O [Darinaparsin] (first compound 0.006 µM, partner dose 0.4 µM): the cell count was 84.9%.

Take `COc1ccc(COc2ccc(Cc3cnc(N)nc3N)cc2OC)cc1` + C/C(O)=C(\C#N)C(=O)Nc1cc(Br)ccc1Br [LFM-A13] (first compound 1 µM, partner dose 2 µM): the cell count is 92.8%.

As to `O=C(O)c1ccc2c(c1)nc(Nc1cccc(Cl)c1)c1ccncc12` + O=C(Oc1ccc([N+](=O)[O-])cc1)N1CCC(C(O)(c2ccc3c(c2)OCO3)c2ccc3c(c2)OCO3)CC1 [JZL184] (first compound 0.4 µM, partner dose 1 µM), the cell count was found to be 94.5%.

As to `COc1ccc(COc2ccc(Cc3cnc(N)nc3N)cc2OC)cc1` + Cc1cc(SCc2sc(-c3ccc(C(F)(F)F)c(F)c3)nc2C)ccc1OCC(=O)O [GW0742] (first compound 1 µM, partner dose 2 µM), the cell count worked out at 105%.

Regarding `Clc1ccc(Nc2nnc(Cc3ccncc3)c3ccccc23)cc1` [vatalanib] + C[As](C)SC[C@H](NC(=O)CC[C@H](N)C(=O)O)C(=O)NCC(=O)O [Darinaparsin] (first compound 2 µM, partner dose 0.4 µM), the cell count turned out to be 124%.

In turn, `CC(C)C[C@H](NC(=O)[C@H](Cc1ccccc1)NC(=O)c1cnccn1)B(O)O` [Bortezomib] + N.N.[Cl][Pt][Cl] [cisplatin] (first compound 0.001 µM, partner dose 1.6 µM) returned a cell count of 108%.
